# Paper PMC12040169 (PLOS Biology, 2025)
# Some of the results follow.
# Tested on: T1, C. trachomatis L2/434/Bu expressing GFP (CTL2-GFP)
# T1 construct: L2/434/Bu GFP intracellular growth in HeLa cells
# Parameters: species or system HeLa; C. trachomatis total inclusion area by high-content imaging, normalised to DMSO
# Conditions: total inclusion area; 28.5 h, 10 µM; inhibitor
# Method in brief: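 High-content imaging followed the bulk GFP/resorufin measurement: fixed, Hoechst-stained cells were scored for GFP inclusions and host nuclei per well. Total inclusion area and count served as growth proxies, nuclei number as the viability proxy. MIC calculation matched the bulk assay.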
row,SMILES,% of control remaining
1,CC(C)C(=O)N1CC2(CCN(Cc3ccc(C(C)C)cc3)CC2)c2ccccc21 [CBK122702],84.2067
2,O=C(O)CN1C(=O)C2(CC(=O)N(Cc3ccccc3)C2=O)c2cc(F)ccc21 (stereo not drawn) [CBK076173],122.636
3,O=C(O)CCNc1ncnc2ccccc12 [CBK126920],97.9407
4,CC(C)NS(=O)(=O)c1ccc(OCC(=O)Nc2ccc3c(c2)OCCO3)cc1 [CBK265915],126.001
5,O=C(O)Cn1cc(C(=O)COc2ccccc2)c2ccccc21 [CBK286708],78.3021
6,Cc1nn(C)c(C)c1NC(=O)COc1ccc(C#N)cc1 [CBK306011],39.1039
7,COc1ccccc1-c1cnc(N)c(N2CCN(CCO)CC2)n1 [CBK063403],143.934
8,COCCNC(=O)c1cnc2ccc(OC)cc2c1O [CBK159999],89.1326
9,CN(C)CCCn1nc2n(c1=O)-c1ccccc1SC(c1ccccc1)C2 (stereo not drawn) [CBK016063],91.3259
10,O=C(NC(=S)Nc1ccc2oc(-c3ccncc3)nc2c1)c1cc(Br)ccc1Cl [CBK264343],101.491
11,FC(F)(F)c1ccnc(OCCCc2ccncc2)n1 [CBK115799],100.079
12,O=S(=O)(c1ccc(Cl)cc1)N1CCN(S(=O)(=O)N2CCCCC2)CC1 [CBK267075],105.953
13,CN(C)C(C(=O)NCC1(C)COC1)c1ccc(Cl)cc1 (stereo not drawn) [CBK281753],76.2014
14,COc1ccc(NC(=O)N[C@H]2CO[C@H]3[C@@H]2OC[C@@H]3n2cc(-c3ccccc3)nn2)cc1 [CBK289506],115.163
15,CN(Cc1ccc(Cl)c(F)c1)C(=O)c1cn[nH]c1C1CCCCN1 (stereo not drawn) [CBK304742],52.7235
16,CCC(CC(=O)NC1CCCOC1)c1c[nH]c2ccccc12 (stereo not drawn) [CBK282521],135.448
17,CCOc1ccc(NC(=O)Cn2c3c(c(-c4ccccc4)cc2=O)CCCC3)cc1 [CBK294457],95.2254
18,O=C1NCCNC(=O)C2(C/C=C/COc3ccccc31)CCCN(C(=O)c1cnco1)C2 (stereo not drawn) [CBK291993],101.547
19,CC(C)c1ccc(OCC(=O)NNC(=O)c2ccco2)c(Br)c1 [CBK267224],101.372
20,CC(C)CNC(=O)N1CCNC(=O)C1 [CBK155864],96.8483
21,Cn1ccnc1Sc1cc(C(F)(F)F)ccn1 [CBK093798],85.1221

row,SMILES,% of control remaining
1,COc1ccc(-c2cc(-c3c(O)ccc4c(C)cc(=O)oc34)nc(N)n2)cc1OC [CBK074619],130.561
2,CCN(CC1CCOC1)C(=O)c1cn2ccccc2n1 (stereo not drawn) [CBK305653],74.4762
3,Cn1nc(C2CCN(C(=O)Cc3ccsc3)CC2)c2cccnc21 [CBK284986],82.0761
4,Fc1ccc(C2NC(S)=NC3=C2N2CCC3CC2)cc1 (stereo not drawn) [CBK288390],65.3756
5,Cc1nccnc1N1CCC2(CCCN(CC3CCC3)C2=O)C1 (stereo not drawn) [CBK306806],38.9265
6,COc1cccc(/C=N/N2C(=O)c3ccc([N+](=O)[O-])cc3NC2c2cccc(OC)c2O)c1O (stereo not drawn) [CBK074439],74.7668
7,CN1CCN(C(=O)c2cnc3cc(C(F)(F)F)ccc3c2O)CC1 [CBK107423],95.6424
8,CCCc1nnc2sc(C3CCCN(C(C)C)C3)nn12 (stereo not drawn) [CBK306781],83.0619
9,Cn1ccnc1CNC(=O)N1CCCC(C(=O)c2cccc(Cl)c2)C1 (stereo not drawn) [CBK307479],29.8921
10,CCC(C)(C)c1ccc(S(=O)(=O)N2CCCN(Cc3c[nH]c(=O)[nH]c3=O)CC2)cc1 [CBK062881],109.412
11,CC(NC(=O)C1CCN(CCc2ccccc2)CC1)c1ccccc1 (stereo not drawn) [CBK148612],105.625
12,Cc1ccnn1CCC(=O)N1CCC(c2cc3cccnc3[nH]2)CC1 [CBK284912],109.03
13,N#C/C(=C(/O)c1ccc(-c2ccc([N+](=O)[O-])cc2Cl)o1)c1nc(-c2ccc(F)cc2)cs1 [CBK266742],126.505
14,CS(=O)(=O)c1ccc(-c2cnc(N)c(NCCCO)n2)cc1 [CBK063587],161.752
15,O=C(NCCn1nc(-c2ccco2)ccc1=O)c1cccs1 [CBK283704],97.3371
16,O=C(Nc1ncccc1O)c1c(O)c2ccccc2n(Cc2ccccc2)c1=O [CBK291211],94.4376
17,CC(C)C(=O)N1CCCC(c2cc3cccnc3[nH]2)C1 (stereo not drawn) [CBK284994],86.8637
18,COc1ccc(-c2ccc3c(c2)OC2(CCN(C(=O)c4cc(OC)c(C)c(OC)c4)CC2)CC3=O)cn1 [CBK169424],93.2769
19,COc1ccc(C(=O)N2CCC3(CCCN(C(=O)c4ccco4)C3)C2)cc1OC (stereo not drawn) [CBK131647],68.1943
20,COc1cccc(NC(=O)N2CCC3(CC2)NC(=O)c2cc(-c4ccoc4)ccc2O3)c1 [CBK115855],97.0169
21,Cc1cc(N2CCN(C(=O)CCc3ccccc3)CC2)nc(C(C)C)n1 [CBK305711],88.5086

row,SMILES,% of control remaining
1,CCCC(=O)NC(c1ccccn1)C1CCC(CNC(C)=O)CC1 (stereo not drawn) [CBK283080],86.5786
2,CCC1CCCCN1C(=O)c1ccc(-c2ccccc2)s1 (stereo not drawn) [CBK074215],106.055
3,COc1ccccc1CC(c1ccccc1)C1CN(C)CCO1 (stereo not drawn) [CBK009925C],62.7661
4,O=C(Nc1cccc(Cl)c1)Nc1ccc(C(=O)O)c(O)c1 [CBK269518],100.259
5,O=C(Cc1ccc(Cl)c(Cl)c1)N1CCCC2(CCN(C(=O)c3ccoc3)C2)C1 (stereo not drawn) [CBK131619],93.5736
6,N#Cc1ccccc1N1CCN(c2ccc(-c3ccccc3)cn2)CC1 [CBK037590],87.338
7,CC(=O)Nc1ccc2nc(Nc3nc4c(F)cccc4s3)sc2c1 [CBK287475],173.876
8,c1ccc(-c2cn3ccnc3c(N3CCN(c4ccncc4)CC3)n2)cc1 [CBK066177],111.181
9,CCN(C)CC(=O)N1CCC(Oc2cc(C)ccc2F)(C(=O)O)CC1 [CBK307020],57.1241
10,Cc1cc(C(=O)O)ccc1-c1ccc(/C=C/c2[nH]c(=O)[nH]c(=O)c2[N+](=O)[O-])o1 [CBK266998],117.611
11,Cc1ccc(S(=O)(=O)NCC(=O)O)cc1[N+](=O)[O-] [CBK034459],100.141
12,COc1cc(NS(=O)(=O)c2ccccc2)c(Cl)cc1C(=O)O [CBK286564],80.3869
13,CC(=O)N1CC(C(=O)Nc2nc3c(C)cc(C)cc3s2)C1 [CBK281372],113.429
14,C=CCSc1nc2ccccc2c(=O)n1CCc1ccccc1 [CBK055285],90.0254
15,COc1ccccc1NC(=O)CSc1nc(O)c2c(C)cc(C)nc2n1 [CBK266095],100.986
16,CC(=O)Nc1cccc(NC(=O)CN(CCO)C2CCCCC2)c1 [CBK304239],77.1394
17,CC1CCN(C(=O)CCn2c(C(F)F)cc3cccnc32)CC1 [CBK284982],96.7999
18,Cc1ccc(SCCC(=O)NC(CC(=O)O)C(=O)O)cc1 (stereo not drawn) [CBK295174],108.109
19,CCOC(=O)c1ccc(NC(=O)Cc2c(C(=O)O)nnn2-c2cccc(C(F)(F)F)c2)cc1 [CBK296932],89.7229
20,O=C(O)CCNS(=O)(=O)c1cccc(F)c1 [CBK267264],92.8684
21,CC(C)c1n[nH]c(=S)n1C1CCc2ccccc21 (stereo not drawn) [CBK288374],36.8127

row,SMILES,% of control remaining
1,CS(=O)(=O)Nc1ccc(C(=O)NCCN2CCOCC2)cc1 [CBK269781],84.5724
2,CCOc1ncccc1C(=O)NCc1ccc(COCC(F)(F)F)cc1 [CBK304526],28.1263
3,CCN(CC(=O)N1CCN(C)CC1)S(=O)(=O)c1cc(Cl)ccc1Cl [CBK269297],69.4539
4,O=C(CN1CCC(Cc2ccccc2)CC1)Nc1ccc(F)c(Cl)c1 [CBK126387],103.787
5,CCCC/C=C/c1cn2ccnc2c(N2CCOCC2)n1 [CBK038031],138.008
6,c1ccc(CN2CCN(c3nccnc3OCc3cccnc3)CC2)cc1 [CBK083129T],96.171
7,C#CCOc1cccc2oc(CCC)cc(=O)c12 [CBK005628],45.1922
8,CN1CCC2(CCC1=O)CC(N)c1ccccc1O2 (stereo not drawn) [CBK284456],56.6392
9,COc1ccccc1N1CCN(c2ccc([N+](=O)[O-])cc2C(=O)O)CC1 [CBK286692],49.4513
10,O=S1(=O)CCN(CC2COc3ccccc3O2)CC1 (stereo not drawn) [CBK074789],110.453
11,COc1ccc(Cl)cc1NC(=O)CN(c1ccccc1)S(=O)(=O)c1ccc(Cl)cc1 [CBK265261],96.6662
12,O=C(c1cncnc1)N1CCC2(CCN(C(=O)c3ccoc3)C2)C1 (stereo not drawn) [CBK131755],54.7316
13,OCCc1ccc(Nc2cc(-c3cc4ccccc4s3)ncn2)cc1 [CBK090770],79.7497
14,O=C(NCCOc1ccccc1Cc1ccccc1)c1cncc(Br)c1 [CBK266581],106.598
15,O=C1NCCN1c1cccc(Cl)c1 [CBK016915],72.1131
16,CCN(CC)CCN(Cc1cc2ccc(C)cc2[nH]c1=O)C(=O)Nc1ccc(Cl)cc1 [CBK068680],92.3627
17,O=C(Cc1c[nH]c2ccccc12)N1CCC2(CCCN(C(=O)c3cccc(C(F)(F)F)c3)C2)C1 (stereo not drawn) [CBK131578],114.694
18,O=C1CCC(=O)N1CCOc1nccnc1N1CCN(CCc2ccc3ccccc3c2)CC1 [CBK084307],100.456
